76 compounds from the supplement of paper PMC10600219 can be followed below.

Where a name gives a salt, the structure may show the parent alone. In all, about 2,800 compounds were measured (“cell viability relative to vehicle”: median about 0.98, lowest 2% from about 0.45 on). Some of the results follow.

The test concerns NCI-H2228 alectinib-DTP. Nature of the test: cell viability relative to vehicle (fraction of vehicle); NCI-H2228 is an ALK-positive lung cancer line and DTP means drug-tolerant persister; higher = less growth inhibition. Particulars: 100 nM; treatment time 6 days. In a few lines:
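Parental NCI-H2228 cells and drug-tolerant persister cells (made with 1000 nM of a targeted drug for 13 days) were seeded in 384-well plates. The next day, the 3114-agent TargetMol anti-cancer compound library was added at 100 nM, with DMSO as vehicle. After 6 days, ATP was read with the CellTiter-Glo 3D Cell Viability Assay. Each value is cell viability relative to vehicle-treated cells.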
The compound `O=C(Nc1ccc(C(O)(C(F)(F)F)C(F)(F)F)cc1)c1ccccc1Cl` showed a cell viability of 0.929.

As for `COc1c(OCCCN2CCOCC2)ccc2c1N=C(NC(=O)c1cnc(N)nc1)N1CCN=C21` [Copanlisib], the cell viability was found to be 0.38.

`O=NN(CCCl)C(=O)NC1CCCCC1` [Lomustine] registered a cell viability of 0.778.

Turning to `OC1CCC(Oc2cccc3cnc(Nc4ccc5nc[nH]c5c4)nc23)CC1` (stereo unspecified), the cell viability stood at 1.02.

In turn, `NC(Cc1ccccc1O)C(=O)O` (racemic) [DL-O-Tyrosine] registered a cell viability of 0.88.

Turning to `Cc1cccc(CN2CCN(C(c3ccccc3)c3ccc(Cl)cc3)CC2)c1` (stereo unspecified) [Meclizine dihydrochloride], the cell viability came to 0.951.

For the compound `COc1cnc(NS(=O)(=O)c2ccc(N)cc2)nc1` [Sulfameter], the cell viability was found to be 1.08.

The compound `O=C(O)CCn1c2c(c3ccccc31)C[C@H](NS(=O)(=O)c1ccc(F)cc1)CC2` [Ramatroban] showed a cell viability of 0.887.

Compound `O=C(O)CCC(=O)Nc1ccc(S(=O)(=O)Nc2nccs2)cc1` [Succinylsulfathiazole] displayed a cell viability of 1.19.

Compound `Cc1c[nH]c2nc(Nc3ccc(N4CCN(C)CC4)c(F)c3)nc(-c3cccc(CC#N)c3)c12` gave a cell viability of 0.981.

Consider `CN1CCC(COc2cnc(-c3cccc(Cn4nc(-c5cccc(C#N)c5)ccc4=O)c3)nc2)CC1` [Tepotinib], for which the cell viability was determined as 1.05.

On to `CC(C)c1cc(C(=O)N2Cc3ccc(CN4CCN(C)CC4)cc3C2)c(O)cc1O` [Onalespib], for which the cell viability worked out at 0.793.

As to `CCOC(=O)C1=C[C@]2(CC)CCCN3CCc4c(n1c1ccccc41)[C@@H]32` [Vinpocetine], the cell viability was found to be 1.16.

The compound `Cc1cc(-n2cccc2)c(S(C)(=O)=O)cc1C(=O)N=C(N)N` [Eniporide] gave a cell viability of 1.04.

Regarding `CC(C)[C@H](NC(=O)[C@H](CC(=O)O)NC(=O)[C@H](CCCCN)NC(=O)[C@@H](N)CCCN=C(N)N)C(=O)N[C@@H](Cc1ccc(O)cc1)C(=O)O` [Thymopentin], the cell viability is 1.05.

As to `C[C@]12CC[C@@H]3c4ccc(O)cc4CC[C@H]3[C@@H]1CCC2=O` [Aquacrine], the cell viability was determined as 1.23.

In the case of `CCN(CC)CCOc1ccc(Nc2nc(-c3ccccc3NC(=O)CCN3CCN(C)CC3)nc3ccccc23)cc1`, the cell viability was determined as 1.16.

Regarding `CCCCCCCCc1ccc(CCC(N)(CO)CO)cc1` [Fingolimod hydrochloride], the cell viability is 0.92.

In turn, `CCC(CC)CC1(C(=O)Nc2ccccc2SC(=O)C(C)C)CCCCC1` [Dalcetrapib] returned a cell viability of 1.02.

Take `CN1[C@@H](CC(=O)c2ccccc2)CCC[C@H]1C[C@H](O)c1ccccc1` [Lobeline hydrochloride]: the cell viability came to 1.02.

For the compound `Cn1cc(-c2ccc3nnc(C(F)(F)c4ccc5ncccc5c4)n3n2)cn1`, the cell viability was found to be 1.03.

As for `c1ccc2[nH]c(-c3cscn3)nc2c1` [Thiabendazole], the cell viability amounted to 1.01.

With `CN1CC2c3ccccc3Oc3ccc(Cl)cc3C2C1` (stereo unspecified) [Asenapine Maleate], the cell viability amounted to 0.871.

`Oc1cc(CN2CCOCC2)c(O)cc1CN1CCOCC1` had a cell viability of 1.05.

In the case of `COC1=C2C[C@@H](C)C[C@H](OC)[C@H](O)[C@@H](C)/C=C(\C)[C@H](OC(N)=O)[C@@H](OC)/C=C\C=C(/C)C(=O)NC(=CC1=O)C2=O` [Geldanamycin], the cell viability is 1.

`CC1CS(=O)(=O)CCN1/N=C/c1ccc([N+](=O)[O-])o1` (stereo unspecified) [Nifurtimox] displayed a cell viability of 1.

In turn, `COC(=O)c1cc(OC)c2c(c1-c1c(CO)cc(OC)c3c1OCO3)OCO2` [Bicyclol] showed a cell viability of 0.993.

Take `COc1cc(Nc2ncc(F)c(Nc3ccc4c(n3)N(COP(=O)(O)O)C(=O)C(C)(C)O4)n2)cc(OC)c1OC` [Fostamatinib]: the cell viability is 0.812.

In turn, `COc1ccc(-c2cc(=O)c3c(O)cc(O[C@@H]4O[C@H](CO[C@@H]5O[C@@H](C)[C@H](O)[C@@H](O)[C@H]5O)[C@@H](O)[C@H](O)[C@H]4O)cc3o2)cc1O` [Diosmin] returned a cell viability of 1.08.

With `Cc1nnc(C(C)C)n1C1C[C@H]2CC[C@@H](C1)N2CC[C@H](NC(=O)C1CCC(F)(F)CC1)c1ccccc1` (stereo in doubt) [Maraviroc], the cell viability was 0.978.

As to `CC1=C[C@]2(O)O[C@@]3(CC2=C(C)C)[C@@H](C)CC[C@@H]13` [Curcumenol], the cell viability was found to be 0.982.

As to `O=c1c2cc(O)c(O)cc2oc2cc(O)c([C@@H]3O[C@H](CO)[C@@H](O)[C@H](O)[C@H]3O)c(O)c12` [Mangiferin], the cell viability is 1.04.

On to `CCOc1ccc(-c2nc(-c3cccc4c3CCC4NCCO)no2)cc1OCC` (stereo unspecified), for which the cell viability came out at 0.887.

`CCCS(=O)(=O)Nc1ccc(F)c(C(=O)c2c[nH]c3ncc(-c4ccc(Cl)cc4)cc23)c1F` [Vemurafenib] registered a cell viability of 1.12.

`C=CC(=O)N1CC/C(=C\c2ccc(F)c([N+](=O)[O-])c2)C(=O)/C(=C/c2ccc(F)c([N+](=O)[O-])c2)C1` returned a cell viability of 1.07.

On to `O=C(Nc1c(Cl)cncc1Cl)c1ccc(OC(F)F)c(OCC2CC2)c1` [Roflumilast], for which the cell viability was found to be 0.981.

As to `O=C(O)c1cc(-c2ccc(F)cc2F)ccc1O` [Diflunisal], the cell viability is 0.927.

In turn, `C[C@@H]1O[C@@H](O[C@H]2[C@H](Oc3cc(O)c(C(=O)CCc4ccc(O)cc4)c(O)c3)O[C@H](CO)[C@@H](O)[C@@H]2O)[C@H](O)[C@H](O)[C@H]1O` [Naringin dihydrochalcone] came in with a cell viability of 1.06.

`CCCCNC(=O)NS(=O)(=O)c1ccc(C)cc1` [Tolbutamide] had a cell viability of 1.12.

In turn, `O[C@H]1[C@H]2c3cc4c(cc3CN3CCC(=C[C@@H]1O)[C@H]23)OCO4` [Lycorine chloride] had a cell viability of 0.966.

For the compound `CN(C)C1CCN(C(=O)c2ccc(NC(=O)Nc3ccc(-c4nc(N5CCOCC5)nc(N5CCOCC5)n4)cc3)cc2)CC1` [Gedatolisib], the cell viability came out at 0.385.

`O=S(=O)(O)CCS` [Mesna] registered a cell viability of 0.93.

The compound `CCOc1ccccc1OCCN[C@H](C)Cc1ccc(OC)c(S(N)(=O)=O)c1` [Tamsulosin hydrochloride] came in with a cell viability of 1.01.

With `O=C(O)c1cc2ccccc2oc1=O` [Coumarin-3-carboxylic acid], the cell viability came out at 1.16.

The compound `C[C@@H](CN1CC(=O)NC(=O)C1)N1CC(=O)NC(=O)C1` [Dexrazoxane HCl] displayed a cell viability of 0.89.

The compound `CNCCC(Oc1ccc(C(F)(F)F)cc1)c1ccccc1` (stereo unspecified) [Fluoxetine] registered a cell viability of 1.13.

On to `N=C(N)NCCC[C@H](N)C(=O)O` [L-arginine monohydrochloride], for which the cell viability stood at 1.19.

Turning to `Cn1nccc1Nc1nccc(-c2ccn([C@H](CO)c3ccc(Cl)c(F)c3)c(=O)c2)n1` [Ravoxertinib], the cell viability came to 0.884.

The compound `CN(C)Cc1cccc(N/C(=C2\C(=O)Nc3cc(C(N)=O)ccc32)c2ccccc2)c1` displayed a cell viability of 0.967.

For the compound `Cc1cnc(CNC(=O)c2c(=O)c3ccc(N4CCCN(C)CC4)nc3n3c2sc2ccccc23)cn1`, the cell viability was determined as 0.809.

Take `O=C(Nc1ccccc1C(=O)Nc1ccc(CCO)cc1)c1ccc([N+](=O)[O-])cc1`: the cell viability stood at 0.988.

Regarding `C=C1C(=O)O[C@@H]2C[C@@]3(C)CCC[C@H](C)C3=C[C@H]12` [Helenine], the cell viability amounted to 0.903.

In turn, `N#Cc1c(-c2ccccc2)cc(-c2cc(Br)ccc2O)[nH]c1=O` displayed a cell viability of 0.907.

The compound `N#C/C(=C/c1ccc(O)c(O)c1)C(=O)N1CCc2ccccc21` [Tyrphostin AG 528] returned a cell viability of 1.03.

`C[C@@]12C[C@@]3(O)O[C@@H](O1)[C@]1(COC(=O)c4ccccc4)[C@H]3C[C@@]12O[C@@H]1O[C@H](CO)[C@@H](O)[C@H](O)[C@H]1O` [Paeoniflorin] showed a cell viability of 1.08.

For `CC(C)=CC[C@H](O)C1=CC(=O)c2c(O)ccc(O)c2C1=O` [Alkannin], the cell viability came out at 0.957.

For `CCC1=C(C)CN(C(=O)NCCc2ccc(S(=O)(=O)NC(=O)N[C@H]3CC[C@H](C)CC3)cc2)C1=O` [Glimepiride], the cell viability is 1.19.

As to `CCC(C)SSc1ncc[nH]1` (stereo unspecified), the cell viability is 0.984.

As for `Cc1coc2c1C(=O)C(=O)c1c-2ccc2c(C)cccc12` [Tanshinone I], the cell viability came out at 1.06.

As for `Oc1ccc(-c2nc3cc(O)cc(Br)c3o2)cc1`, the cell viability is 1.01.

In turn, `O=P(O)(O)C(Cl)(Cl)P(=O)(O)O` [Disodium clodronate tetrahydrate] registered a cell viability of 0.96.

As to `CCNC(=O)C#Cc1ccc2c(C(=Nc3ccc(CN(C)C)cc3)c3ccccc3)c(O)[nH]c2c1`, the cell viability was determined as 0.767.

Turning to `C=C(C)C1CC=C(C)CC1` (single isomer, unassigned; (+)) [(+)-Dipentene], the cell viability was found to be 1.03.

In turn, `O=C1CCc2cc(OCCCCc3nnnn3C3CCCCC3)ccc2N1` [Cilostazol] had a cell viability of 1.14.

`Nc1ncnc2c1c(-c1cnc3[nH]ccc3c1)nn2C1CCCC1` returned a cell viability of 0.782.

In the case of `COc1ccc2cc1Oc1ccc(cc1)C[C@H]1c3cc(c(OC)cc3CCN1C)Oc1c(OC)c(OC)cc3c1[C@H](C2)N(C)CC3` [Tetrandrine], the cell viability was 0.974.

Regarding `COc1cc(OC)cc(-c2cc3cnc(N)nc3nc2NC(=O)NC(C)(C)C)c1`, the cell viability was found to be 0.674.

Turning to `CCCCc1nc(C)c(CC(=S)N(C)C)c(=O)n1Cc1ccc(-c2ccccc2-c2nnn[nH]2)cc1` [Fimasartan], the cell viability amounted to 0.864.

The compound `Cc1nc(NC(=O)N2CCC[C@H]2C(N)=O)sc1-c1ccnc(C(C)(C)C(F)(F)F)c1` [Alpelisib] had a cell viability of 0.785.

As to `O=C(Nc1ccc(OC(F)(F)Cl)cc1)c1cnc(N2CC[C@@H](O)C2)c(-c2cc[nH]n2)c1` [Asciminib], the cell viability came to 1.03.

With `CC(C)NCC(O)COc1cccc2ccccc12` (stereo unspecified) [Propranolol hydrochloride], the cell viability stood at 0.891.

Compound `COc1ccc2cc([C@@H](C)C(=O)O)ccc2c1` [(R)-Naproxen] returned a cell viability of 0.94.

For `COC(=O)[C@@H]1[C@H]2C[C@H]3c4[nH]c5ccccc5c4CCN3C[C@@H]2CC[C@@H]1O` [Yohimbine hydrochloride], the cell viability was 1.22.

Consider `CCC1C/C(=C\c2cccnc2)C(=O)/C(=C/c2cccnc2)C1` (stereo unspecified), for which the cell viability amounted to 0.98.

`CC1(C)NC(=O)N(c2ccc([N+](=O)[O-])c(C(F)(F)F)c2)C1=O` [Nilutamide] returned a cell viability of 0.998.

As to `Cc1[nH]c(/C=C2\C(=O)Nc3ccc(S(=O)(=O)N(C)c4cccc(Cl)c4)cc32)c(C)c1C(=O)N1CCN(C)CC1`, the cell viability was 0.896.
